Source: PMC4336329 (PLoS ONE, 2015)
The whole screen tested about 310,000 compounds, of which about 2,200 (0.71%) showed an effect of 50% or more. Effects have a minus sign here. Some of the results follow.

Biological target: human ether-à-go-go-related gene (hERG) potassium channel (human, UniProt Q12809)
Test: primary screen, population patch clamp on CHO cells stably expressing hERG

human ether-à-go-go-related gene (hERG) potassium channel, sequence (Q12809 whole entry, looked up): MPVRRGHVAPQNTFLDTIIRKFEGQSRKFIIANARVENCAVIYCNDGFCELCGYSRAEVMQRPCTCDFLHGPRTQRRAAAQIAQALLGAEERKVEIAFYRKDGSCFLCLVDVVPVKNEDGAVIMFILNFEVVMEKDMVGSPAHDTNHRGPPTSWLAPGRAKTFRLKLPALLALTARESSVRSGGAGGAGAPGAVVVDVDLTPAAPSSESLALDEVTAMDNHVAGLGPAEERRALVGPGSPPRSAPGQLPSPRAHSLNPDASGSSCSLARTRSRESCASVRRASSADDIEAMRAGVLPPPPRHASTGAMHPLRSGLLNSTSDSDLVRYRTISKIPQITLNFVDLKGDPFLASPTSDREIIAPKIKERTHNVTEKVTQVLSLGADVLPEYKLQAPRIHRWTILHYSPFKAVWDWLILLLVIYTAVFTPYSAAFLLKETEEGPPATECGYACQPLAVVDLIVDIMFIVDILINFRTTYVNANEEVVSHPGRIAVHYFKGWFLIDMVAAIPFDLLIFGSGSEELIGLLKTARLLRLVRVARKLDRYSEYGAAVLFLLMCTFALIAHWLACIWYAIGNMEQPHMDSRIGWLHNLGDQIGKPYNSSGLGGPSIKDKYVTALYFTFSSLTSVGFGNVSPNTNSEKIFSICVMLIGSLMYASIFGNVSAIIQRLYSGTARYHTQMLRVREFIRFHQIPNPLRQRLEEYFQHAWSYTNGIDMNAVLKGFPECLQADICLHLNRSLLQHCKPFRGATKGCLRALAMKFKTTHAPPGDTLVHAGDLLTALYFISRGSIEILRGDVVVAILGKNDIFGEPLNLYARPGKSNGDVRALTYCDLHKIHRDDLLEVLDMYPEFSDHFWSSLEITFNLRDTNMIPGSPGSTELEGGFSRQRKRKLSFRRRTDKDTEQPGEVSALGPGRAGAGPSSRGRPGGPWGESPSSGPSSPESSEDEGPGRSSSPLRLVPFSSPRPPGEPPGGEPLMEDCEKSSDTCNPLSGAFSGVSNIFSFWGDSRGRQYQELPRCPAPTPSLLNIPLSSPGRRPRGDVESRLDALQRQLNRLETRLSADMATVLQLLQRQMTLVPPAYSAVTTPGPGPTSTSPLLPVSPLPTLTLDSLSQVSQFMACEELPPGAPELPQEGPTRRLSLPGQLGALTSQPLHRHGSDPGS

| Structure (SMILES) | hERG current change (%, negative = inhibition) at 1uM [%] |
| --- | --- |
| CCOc1cccc(-c2cc(-c3n[nH]c(=S)n3CC)c3ccccc3n2)c1 | 11.1 |
| O=c1[nH]c2ccc(S(=O)(=O)NCCO)cc2[nH]1 | 15.2 |
| COC(=O)C(C)Oc1ccc(-c2nccc(-c3ccccn3)n2)cc1 (stereo not drawn) | 0.304 |
| Cc1ccc2c(=O)cc(C(=O)NCCc3ccc(S(N)(=O)=O)cc3)oc2c1C | 16.8 |
| O=C(NCc1cccs1)Nc1cccc(Cl)c1 | 11.3 |
| O=C1CNC(=O)N1c1ccc(Cl)cc1 | 8.46 |
| Cc1ccc(NC2=C(NC(=O)c3ccccc3)C(=O)c3ccccc3C2=O)cc1Cl | 1.79 |
| CC(=O)Oc1ccc(C(=O)Nc2ccc(S(=O)(=O)N3CCOCC3)cc2)cc1 | 14.3 |
| COc1ccccc1NC(=O)CC(c1ccc(F)cc1)c1ccco1 (stereo not drawn) | 7.32 |
| CCOC(=O)C1(Cc2ccccc2)CCN(Cc2cccc3nccnc23)CC1 | -10.3 |
| CCOc1ccc2nc(SCC(=O)N3CCCCCC3)c(C#N)cc2c1 | 6.04 |
| Nc1c(-c2cccs2)cnc2c(-c3ccc(F)cc3)cnn12 | 5.91 |
| CC(C)c1ccc(NC(=O)C2C3C=CC4(CN(Cc5cccnc5)C(=O)C24)O3)cc1 (stereo not drawn) | 10.1 |
| CCCCn1nnc(NC(=S)NC(=O)c2ccc(OCC)c([N+](=O)[O-])c2)n1 | -13.3 |
| Fc1ccc(NC(=S)N2CCCCC2)cc1 | 14.3 |
| NS(=O)(=O)c1ccc(CNC(=O)c2ccc3c(=O)n4c(nc3c2)CCC4)cc1 | 13.3 |
| COC(=O)C(C(=O)Nc1ccc(OC)cc1)C1CCCCCC1 (stereo not drawn) | 4.04 |
| CN(C)c1nc(OCCOC(=O)COc2ccc(Cl)cc2Cl)nc(N(C)C)n1 | 1.41 |
| Cc1ccc(-c2nc(C#N)c(N3CCC(C(N)=O)CC3)o2)cc1 | 3.04 |

| Structure (SMILES) | hERG current change (%, negative = inhibition) at 1uM [%] |
| --- | --- |
| COc1ccc(C(=O)CNc2cccc(F)c2)cc1 | 13.3 |
| CC(=O)c1ccc(-c2ccc(C(=O)Nc3nc(C)c(C(C)=O)s3)o2)cc1 | 1.67 |
| CN(CC(=O)Nc1cccc([N+](=O)[O-])c1)S(=O)(=O)c1ccccc1 | -25.7 |
| Cc1ccc(NC(=O)Cn2nc([N+](=O)[O-])c(Br)c2C)cc1C | 6.53 |
| Cn1nc(C(F)(F)F)c(/C=N/OC(=O)c2ccccc2Cl)c1SCc1ccccc1Cl | 1.56 |
| Cc1ccc(S(=O)(=O)Nc2ccc(C(=O)Nc3ccncc3)cc2)cc1 | 10 |
| O=c1c2ccccc2c(C=NCCCN2CCOCC2)c(O)n1Cc1ccccc1 | 6.61 |
| COc1ccc(C(=O)NC(C)C2CC3CCC2C3)cc1 (stereo not drawn) | 6.02 |
| CCCOC(=O)CCCCCCCCC(O)CN1CCCCC1.Cl (stereo not drawn) | 7.6 |
| COc1ccc(S(=O)(=O)N2CCCCC2)cc1NS(=O)(=O)c1cc(Cl)ccc1Cl | 9.48 |
| COC(=O)c1cc2ccccc2c(=O)s1 | 7.27 |
| O=C(CSCc1ccccc1)NCCc1ccc(F)cc1 | 12 |
| O=C(Nc1ccc(Cl)cc1)c1csc(-c2ccncc2)n1 | -9 |
| CN(C)c1ccc(C(=O)c2ccccc2)cc1 | 7.82 |
| c1ccc(-n2cnnc2SCc2nc3ccccc3s2)cc1 | 12.2 |
| O=C(CCc1nc(-c2ccccn2)no1)NCc1ccc2c(c1)OCO2 | 11.9 |
| COC(=O)c1cc(S(=O)(=O)Nc2ccc(C)cn2)c[nH]1 | 12 |
| Cn1nc([N+](=O)[O-])nc1N1CCOCC1 | 10.7 |
| CC(C)c1cc(-c2cc(C(=O)NCc3ccccc3)on2)nc(NCC2CC2)n1 | 16.6 |

| Structure (SMILES) | hERG current change (%, negative = inhibition) at 1uM [%] |
| --- | --- |
| CC(=O)N/N=C(\C)c1ccc(Br)cc1Br | 5.2 |
| Cc1nc2c(-c3ccc(F)cc3)cnn2c(N)c1-c1ccc(F)cc1 | 18.9 |
| COc1ccc(NC(=O)c2cccc(NC(=O)c3ccco3)c2)c(OC)c1 | 6.09 |
| COc1ccc(S(=O)(=O)N2CCN(C(=O)CN3C(=O)NC(C)(c4ccc5ccccc5c4)C3=O)CC2)cc1 (stereo not drawn) | -2.87 |
| O=Nc1c(O)c2ccccc2c2ccccc12 | 7.46 |
| N/C(CC(=O)Nc1cccc(C(F)(F)F)c1)=N/O | 7.74 |
| COc1ccc(-c2csc(/C(C#N)=C\c3cccc([N+](=O)[O-])c3)n2)cc1 | 14.9 |
| COc1ccc(Br)cc1/C=C/C(=O)Nc1ccc2ccccc2c1 | 15.7 |
| O=C(Nc1ccccc1C(F)(F)F)C1CCCC1 | 19 |
| CCOc1ccc(N(CC(=O)NC2CCCC2)C(=O)CCC(=O)Nc2ccccn2)cc1 | -22.3 |
| CC1=NNC(=O)C1CCC(=O)N/N=C(\C)c1ccc(Cl)cc1 (stereo not drawn) | 5.43 |
| CCOC(=O)c1cncn1[C@@H](C)c1ccccc1 | 7.95 |
| COC(=O)CSC1=C(C#N)C(c2ccccc2)CC(=O)N1 (stereo not drawn) | 25.1 |
| CCC(C)NC(=O)c1c(-c2cc(Cl)c(OC)c(Cl)c2)noc1C (stereo not drawn) | 9.63 |
| CN(Cc1nc(C(c2ccccc2)c2ccccc2)no1)CC1COCCO1 (stereo not drawn) | 6.99 |
| CCN(Cc1ccccc1)S(=O)(=O)c1ccc(C(=O)Nc2nnc(-c3ccccc3OC)o2)cc1 | 8.34 |
| CCN(CC)c1ccc(S(=O)(=O)N2CCOCC2)cc1NC(=O)C1CC1 | 3.92 |
| O=C(COC(=O)c1ccc2c(c1)OCCO2)Nc1cc(S(=O)(=O)N2CCOCC2)ccc1Cl | 15.4 |
| CC(=O)c1cccc(S(=O)(=O)N2CCCC(c3nc4c(nnn4Cc4cccc(Cl)c4)c(=O)[nH]3)C2)c1 (stereo not drawn) | 10.7 |
